Source: the supplement of paper PMC4967469
IC50 is the fitted dose that halves viability relative to control wells, and lower means more sensitive; fits outside the tested doses are given as limits. AUC sums up the same curve from the lowest dose to the 256-fold higher top dose: 1 means no effect, lower means more sensitive. For some of these results: Any top dose called inferred comes from the curve model; the source does not state it.

Columns and labels:
Assay in all cases: Viability of human cancer cell lines after 72 h of drug (GDSC screen)
[1] = compound: C=CCNC1=C2C[C@@H](C)C[C@H](OC)[C@H](O)[C@@H](C)/C=C(\C)[C@H](OC(N)=O)[C@@H](OC)/C=C\C=C(/C)C(=O)NC(=CC1=O)C2=O [17-AAG]; conditions: top dose 1 µM
Protocol: (§1)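 Human cancer cell lines in 384-well plates, medium with 10% serum, drug for 72 h over a 256-fold dose range (nine 2-fold or five 4-fold steps up to the top dose). Adherent lines were fixed and stained with the nucleic acid dye Syto60, suspension lines read with resazurin; signal relative to control wells, capped at 0 and 100%. One two-parameter sigmoid per drug and line, fitted in a mixed model over all curves with the slope shared within a line.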

[2] = compound: CCc1cc(-c2n[nH]c(C)c2-c2ccc3c(c2)OCCO3)c(O)cc1O [CCT018159]; conditions: top dose 10 µM; top dose inferred
Protocol: as §1

[3] = compound: CN(C)Cc1cccc(N=C(c2ccccc2)c2c(O)[nH]c3cc(C(=O)N(C)C)ccc23)c1 [BIX02189]; conditions: top dose 20 µM; top dose inferred
Protocol: as §1

[4] = compound: COC(=O)CNC(=O)C(=O)OC [Dimethyloxalylglycine]; conditions: top dose 4000 µM; top dose inferred
Protocol: as §1

[5] = compound: COc1cccc2c1C(=O)c1c(O)c3c(c(O)c1C2=O)C[C@@](O)(C(=O)CO)C[C@@H]3O[C@H]1C[C@H](N)[C@H](O)[C@H](C)O1 [Doxorubicin]; conditions: top dose 1.024 µM
Protocol: as §1

[6] = compound: COc1cccc2cc(-c3nc([C@H]4CC[C@H](C(=O)O)CC4)n4ncnc(N)c34)[nH]c12 [OSI-027]; conditions: top dose 20 µM
Protocol: as §1

[7] = compound: CS(=O)(=O)c1ccc(C(=O)Nc2ccc(Cl)c(-c3ccccn3)c2)c(Cl)c1 [Vismodegib]; conditions: top dose 10 µM; top dose inferred
Protocol: as §1

[8] = compound: Cc1cnc(Nc2ccc(F)cc2Cl)nc1-c1c[nH]c(C(=O)N[C@H](CO)c2cccc(Cl)c2)c1 [VX-11e]; conditions: top dose 5.12 µM; top dose inferred
Protocol: as §1

[9] = compound: Cc1cnc(Nc2ccc(OCCN3CCCC3)cc2)nc1Nc1cccc(S(=O)(=O)NC(C)(C)C)c1 [TG101348]; conditions: top dose 10.24 µM
Protocol: as §1

[10] = compound: O=C(c1ccc(C(=O)N2CCC(N3CCCC3)CC2)c(Nc2ccccc2)c1)N1CCC(N2CCCC2)CC1 [UNC1215]; conditions: top dose 1 µM; top dose inferred
Protocol: as §1

| Cell Line | AUC [1] | IC50 [1] [µM] | AUC [2] | IC50 [2] [µM] | AUC [3] | IC50 [3] [µM] | AUC [4] | IC50 [4] [µM] | AUC [5] | IC50 [5] [µM] | AUC [6] | IC50 [6] [µM] | AUC [7] | IC50 [7] [µM] | AUC [8] | IC50 [8] [µM] | AUC [9] | IC50 [9] [µM] | AUC [10] | IC50 [10] [µM] |
| --- | --- | --- | --- | --- | --- | --- | --- | --- | --- | --- | --- | --- | --- | --- | --- | --- | --- | --- | --- | --- |
| DMS-79 (small cell lung carcinoma, suspension) | 0.898 | > 1 | 0.955 | > 10 | 0.959 | > 20 | 0.909 | > 4000 | 0.896 | > 1.02 | 0.849 | 18.9 | 0.984 | > 10 | 0.977 | > 5.12 | 0.941 | > 10.2 | 0.969 | > 1 |
| Calu-6 (lung adenocarcinoma, adherent) | 0.965 | > 1 | 0.878 | > 10 | 0.915 | > 20 | 0.672 | 817 | 0.723 | 0.306 | 0.604 | 2.53 | 0.964 | > 10 | 0.529 | 0.388 | 0.83 | 7.73 | 0.981 | > 1 |
| LU-65 (large cell lung carcinoma, suspension) | 0.987 | > 1 | 0.984 | > 10 | 0.933 | > 20 | 0.793 | 2200 | 0.76 | 0.421 | 0.716 | 5.78 | 0.987 | > 10 | 0.797 | 2.93 | 0.846 | 9.63 | 0.983 | > 1 |
| JVM-2 (lymphoid neoplasm, suspension) | 0.877 | > 1 | 0.909 | > 10 | 0.891 | > 20 | 0.85 | > 4000 | 0.695 | 0.259 | 0.906 | > 20 | 0.951 | > 10 | 0.941 | > 5.12 | 0.761 | 4.45 | 0.968 | > 1 |
| ARH-77 (myeloma, suspension) | 0.97 | > 1 | 0.968 | > 10 | 0.903 | > 20 | 0.503 | 255 | 0.599 | 0.118 | 0.208 | 0.18 | 0.982 | > 10 | 0.944 | > 5.12 | 0.736 | 2.92 | 0.972 | > 1 |
| LAMA-84 (chronic myeloid leukaemia, suspension) | 0.798 | 0.483 | 0.89 | > 10 | 0.628 | 2.83 | 0.76 | 1430 | 0.782 |  | 0.251 | 0.238 | 0.932 | > 10 | 0.666 | 0.935 | 0.54 | 0.824 | 0.963 | > 1 |
| BICR78 (head and neck, adherent) | 0.588 | 0.114 | 0.843 | 8.75 | 0.971 | > 20 | 0.664 | 770 | 0.682 | 0.225 | 0.848 | 18.6 | 0.955 | > 10 | 0.952 | > 5.12 | 0.913 | > 10.2 | 0.979 | > 1 |
| G-402 (soft tissue, adherent) | 0.514 | 0.0691 | 0.875 | > 10 | 0.905 | > 20 | 0.619 | 594 | 0.564 | 0.101 | 0.565 | 1.99 | 0.946 | > 10 | 0.883 | > 5.12 | 0.84 | > 10.2 | 0.974 | > 1 |
| MC116 (B-cell lymphoma, suspension) | 0.999 | > 1 | 0.999 | > 10 | 0.987 | > 20 | 0.448 | 187 | 0.852 | 0.456 | 0.285 | 0.38 | 0.999 | > 10 | 0.979 | > 5.12 | 0.929 | 7.33 | 0.997 | > 1 |
| 23132-87 (stomach, adherent) | 0.578 | 0.103 | 0.891 | > 10 | 0.936 | > 20 | 0.943 | > 4000 | 0.319 | 0.0196 | 0.556 | 1.79 | 0.986 | > 10 | 0.921 | > 5.12 | 0.901 | > 10.2 | 0.98 | > 1 |
| NCI-H358 (lung adenocarcinoma, adherent) | 0.75 | 0.359 | 0.9 | > 10 | 0.887 | > 20 | 0.39 | 121 | 0.415 | 0.0364 | 0.436 | 0.821 | 0.983 | > 10 | 0.793 | 2.64 | 0.73 | 3.15 | 0.982 | > 1 |
| HCC1500 (breast, adherent) | 0.931 | > 1 | 0.987 | > 10 | 0.983 | > 20 | 0.431 | 161 | 0.737 | 0.312 | 0.273 | 0.274 | 0.972 | > 10 | 0.982 | > 5.12 | 0.929 | > 10.2 | 0.986 | > 1 |
| NCI-H1435 (lung adenocarcinoma, semi-adherent) | 0.978 | > 1 | 0.981 | > 10 | 0.981 | > 20 | 0.689 | 793 | 0.818 | 0.5 | 0.993 | > 20 | 0.988 | > 10 | 0.992 | > 5.12 | 0.993 | > 10.2 | 0.99 | > 1 |
| CHL-1 (melanoma, adherent) | 0.33 | 0.0216 | 0.89 | > 10 | 0.899 | > 20 | 0.672 | 731 | 0.386 | 0.0318 | 0.164 | 0.128 | 0.949 | > 10 | 0.946 | > 5.12 | 0.81 | 5.01 | 0.986 | > 1 |
| SU-DHL-4 (B-cell lymphoma, suspension) | 0.997 | > 1 | 0.997 | > 10 | 0.944 | 18.4 | 0.449 | 189 | 0.735 | 0.237 | 0.292 | 0.393 | 0.997 | > 10 | 0.933 | 4.25 | 0.916 | 7.35 | 0.997 | > 1 |
| GOTO (neuroblastoma, adherent) | 0.773 | 0.446 | 0.894 | > 10 | 0.93 | > 20 | 0.728 | 1230 | 0.74 | 0.347 | 0.765 | 8.3 | 0.951 | > 10 | 0.975 | > 5.12 | 0.904 | > 10.2 | 0.97 | > 1 |
| YAPC (pancreas, adherent) | 0.754 | 0.414 | 0.943 | > 10 | 0.966 | > 20 | 0.848 | > 4000 | 0.92 | > 1.02 | 0.921 | > 20 | 0.984 | > 10 | 0.967 | > 5.12 | 0.949 | > 10.2 | 0.982 | > 1 |
| TE-15 (oesophagus, suspension) | 0.61 | 0.13 | 0.871 | > 10 | 0.851 | 18.4 | 0.484 | 224 | 0.386 | 0.0298 | 0.269 | 0.25 | 0.985 | > 10 | 0.73 | 1.59 | 0.733 | 3.27 | 0.963 | > 1 |
| COR-L88 (small cell lung carcinoma, adherent) | 0.907 | > 1 | 0.969 | > 10 | 0.957 | > 20 | 0.518 | 282 | 0.922 | > 1.02 | 0.656 | 3.69 | 0.977 | > 10 | 0.986 | > 5.12 | 0.831 | 8.29 | 0.98 | > 1 |
| ME-1 (acute myeloid leukaemia, suspension) | 0.982 | > 1 | 0.983 | > 10 | 0.932 | > 20 | 0.512 | 271 | 0.962 | > 1.02 | 0.618 | 2.7 | 0.987 | > 10 | 0.806 | 2.82 | 0.813 | 6.01 | 0.986 | > 1 |
| EW-18 (Ewing sarcoma, suspension) | 0.966 | > 1 | 0.962 | > 10 | 0.879 | > 20 | 0.707 | 1010 | 0.725 | 0.293 | 0.206 | 0.157 | 0.911 | > 10 | 0.969 | > 5.12 | 0.627 | 1.47 | 0.976 | > 1 |
| NCI-H1048 (small cell lung carcinoma, adherent) | 0.748 | 0.295 | 0.869 | 7.7 | 0.822 | 10.1 | 0.76 | 1280 | 0.579 | 0.103 | 0.222 | 0.214 | 0.985 | > 10 | 0.957 | > 5.12 | 0.856 | 6.97 | 0.987 | > 1 |
| MS-1 (small cell lung carcinoma, suspension) | 0.963 | > 1 | 0.959 | > 10 | 0.939 | > 20 | 0.695 | 824 | 0.706 | 0.227 | 0.367 | 0.56 | 0.976 | > 10 | 0.981 | > 5.12 | 0.754 | 3.12 | 0.988 | > 1 |
| EFO-27 (ovary, adherent) | 0.573 | 0.104 | 0.787 | 5.57 | 0.905 | > 20 | 0.612 | 549 | 0.576 | 0.109 | 0.627 | 3.07 | 0.972 | > 10 | 0.833 | 4.5 | 0.884 | > 10.2 | 0.978 | > 1 |
| D-283MED (medulloblastoma, adherent) | 0.928 | > 1 | 0.937 | > 10 | 0.991 | > 20 | 0.624 | 531 | 0.722 | 0.255 | 0.991 | > 20 | 0.983 | > 10 | 0.913 | > 5.12 | 0.991 | > 10.2 | 0.987 | > 1 |
